In all, about 360,000 compounds went through this assay and about 17,000 (4.7%) were called active. The inconclusive results got no clear call from the source; some entries with a clear call stand among them for comparison. Cut-off read from the data, not from the text of the source: active = activity change below about -50%; inconclusive = mostly about -30% to -49%; inactive = weaker than that.
Experiment: qHTS for Inhibitors of Inflammasome Signaling: IL-1-beta AlphaLISA Primary Screen
Conditions: THP-1 LPS/ATP IL-1B secretion, 16 h; at 57.5 µM, hits give low values
In short: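 Secreted IL-1B measured by AlphaLISA bead assay after 16 h compound exposure of THP-1 cells; compounds (final up to 57.5 uM) added 1 h before LPS (250 ng/mL) and ATP (1.25 mM) stimulation; lower signal means less secretion.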
% is set by controls: 0 for no effect and ±100 for the full control effect.

SMILES | activity change
CCN1CCN(c2ccc(S(=O)(=O)N3CCOCC3)cc2NC(=O)/C=C/c2ccc(C)cc2)CC1 | inconclusive: -42.3%
Nc1c(C(=O)Nc2ccccc2F)sc2nc(-c3cccnc3)ccc12 | inactive: -9.88%
CC(C)c1ccc(NC(=O)COC(=O)c2nn(C)c(=O)c3ccccc23)cc1 | inactive: -5.93%
CC(NC(=O)c1cc2cc(F)ccc2[nH]1)c1ccccc1 (stereo not given) | inactive: 41%
CCCCCn1c(N2CCN(c3cccc(Cl)c3)CC2)nc2c1c(=O)[nH]c(=O)n2C | inconclusive: -38.4%
S=C(Nc1ccc(Nc2ccccc2)cc1)Nc1ccccn1 | inconclusive: -39.4%
O=C(CN1CCOCC1)NNc1nc(-c2ccccc2)c2cc(Br)ccc2n1 | inconclusive: -31.8%
CC1CCN(S(=O)(=O)c2cccc(C(=O)NNC(=O)c3ccco3)c2)CC1 | inactive: -7.08%
Cc1cccc(C(=O)Nc2ccc(NC(=O)c3ccccc3)cc2)c1 | active: -57.6%
O=C(CN1CCN(S(=O)(=O)c2ccccc2[N+](=O)[O-])CC1)NC(=O)NCc1ccco1 | inconclusive: -40.4%
CCCCN(C(=O)CSCc1ccc(C)cc1)c1c(N)n(Cc2ccccc2)c(=O)[nH]c1=O | inconclusive: -38.8%
Cc1ccc(N/N=C/C=C/c2ccco2)cc1 | inconclusive: -36.8%
COC(=O)c1cc2c(ccn2-c2ccc(F)cc2)n1CC(=O)N1CCN(C(=O)c2ccco2)CC1 | inconclusive: -42.6%
Cc1ccc2[nH]c(C)c(CCNC(=O)C3CCCCC3C(=O)OCC(F)(F)F)c2c1 (stereo not given) | inactive: -1.86%
CCCCNC(=S)Nc1ccc(SC(F)F)cc1 | active: -105%
COc1ccc(S(=O)(=O)Nc2ccc3oc(C)c(C(C)=O)c3c2)cc1 | inconclusive: -35.8%
CCCCCCCN(C(=O)CCl)c1cccc(C)c1 | active: -105%
Cc1ccc(NC(=O)N2CCC(C(=O)c3ccc(F)cc3)CC2)cc1 | inactive: -6.79%
O=C(O)c1cccc(S(=O)(=O)N2CCN(Cc3ccc4c(c3)OCO4)CC2)c1 | inactive: -0.264%
COc1cccc(/C=N/NC(=O)c2nc(-c3ccccc3)cc(-c3ccccc3)n2)c1 | inconclusive: -47.7%
CCc1nnc(NC(=O)COc2ccc(N(C)S(=O)(=O)c3ccc(C)cc3)cc2)s1 | inactive: 0%
COc1ccc2c(c1)CCc1c(C(=O)Nc3c(C)nn(Cc4ccccc4)c3C)noc1-2 | inconclusive: -37.1%

SMILES | activity change
COc1ccc(CCNC(=O)N2c3ccccc3Sc3ccccc32)cc1 | inconclusive: -38.3%
O=c1c2ccccc2nc2c3ccccc3cnn12 | inactive: 0%
CCc1ccc(-c2cc(C)no2)cc1S(=O)(=O)N1CCCN(Cc2ccc(F)cc2)C1 | active: -51.7%
CCCn1c(NC(=O)c2cccc(S(=O)(=O)N3CCCC3)c2)nc2ccccc21 | active: -91.6%
O=C(Nc1ccc2c(c1)OCCO2)c1ccc(Br)cc1 | inconclusive: -36.6%
Cc1ccc(-n2ncc3c(NCc4ccccn4)ncnc32)c(C)c1 | inconclusive: -30.7%
COc1ccc(C(=O)c2c(-c3cccc(C)c3)oc3ccc(N4CCOCC4)cc23)cn1 | inconclusive: -40.1%
O=C(C1CCC1)N1CCc2cc(S(=O)(=O)Nc3ccc4c(c3)OCO4)ccc21 | inconclusive: -33.8%
COc1cc(S(=O)(=O)N2CCCCCC2)c(OC)cc1Br | inactive: -16.6%
CCCCCCCOC(=O)C1=C(C)Nc2ncnn2C1c1cccs1 (stereo not given) | inactive: -10.9%
Cc1ccc(C(c2nnnn2C2CCCCC2)N2CCc3ccccc32)cc1 (stereo not given) | inconclusive: -35.9%
CC[C@]12c3[nH]c4ccc(OC)cc4c3CCN1C(=O)C(CC(=O)NC/C=C(\C)CCC=C(C)C)C[C@@H]2C(=O)N1CCN(C(=O)c2ccco2)CC1 (stereo not given in full) | active: -53.1%
CC(C)CCNC(=S)Nc1ccccc1F | inactive: -13%
CCn1c(/C=C2\C(=O)Nc3ccccc32)nc2ccccc2c1=O | inconclusive: -39%
Cc1nc2c(OCc3ccc(Cl)cc3Cl)cccn2c1N(C)Cc1cccs1 | inconclusive: -40%
NC(=O)c1cc2ccccc2o/c1=N/NC(=O)c1cccs1 | inconclusive: -45.7%
CCOC(=O)c1c(NC(=O)c2cccnc2Cl)sc(C(=O)N(C)C)c1C | inconclusive: -34%
Cc1ccc(Sc2cnc(N)nc2C)cc1 | inactive: -10.8%
COc1ccc(C(CNC(=O)c2ccc(-c3ccccc3)cc2)N(C)C)cc1OC (stereo not given) | inconclusive: -30.1%
C=CCn1c(SCc2ccc3nonc3c2)nnc1-c1cccs1 | inconclusive: -37.2%
O=c1[nH]c(C2CCN(S(=O)(=O)c3ccc(F)cc3)CC2)nc2c1nnn2Cc1ccc2c(c1)OCCO2 | inconclusive: -34.3%
Cc1ccc(C)c(N2CCN(C(=O)C3CCN(S(=O)(=O)c4c(C)noc4C)CC3)CC2)c1 | inconclusive: -31.4%

SMILES | activity change
O=C(c1ccc([N+](=O)[O-])cc1)N1CCSC1c1cccc(Cl)c1 (stereo not given) | inconclusive: -36%
COc1cc(NC(=O)c2cc3nc(-c4ccccc4)cc(-c4ccccc4)n3n2)cc(OC)c1OC | inconclusive: -48.3%
O=C(OCc1cc(=O)n2ccsc2n1)C1(c2ccccc2)CC1 | inactive: 49.3%
N#CC1(NC(=O)CN2C(=O)c3ccccc3C2=O)CCCCC1 | inactive: 4.04%
O=S(=O)(c1ccc2oc3ccc(S(=O)(=O)N4CCCCC4)cc3c2c1)N1CCCCC1 | inconclusive: -30.9%
Cc1ccc(C)c(N2CCN(C(=O)C3CCCN(c4ncnc5c4nc4n5CCCCC4)C3)CC2)c1 (stereo not given) | inconclusive: -35%
CCn1c(C)nc([N+](=O)[O-])c1Sc1ccc(F)cc1 | inconclusive: -45.1%
CCc1cc(-c2[nH]ncc2-c2ccc([N+](=O)[O-])cc2)c(O)cc1OC | inconclusive: -39.9%
CS(=O)(=O)c1ccc2nc(NC(=O)C3CCCCC3)sc2c1 | inconclusive: -38%
O=c1c(-c2nnc(SCc3ccc(Cl)cc3)o2)cccn1Cc1ccccc1 | inconclusive: -40.1%
N=c1c2c(ncn1CCN1CCOCC1)Oc1cc(O)ccc1C2c1ccccc1 (stereo not given) | active: -75%
CC(C)(C)NCc1ccccc1OCc1cccs1 | inconclusive: -33.8%
CCOC(=O)N1CCN(C(=O)c2ccc(Cn3c(=S)[nH]c4ccc(Br)cc4c3=O)cc2)CC1 | active: -63.3%
CC(/C=C/c1ccccc1F)=N\NC(=O)c1ccccc1 | inconclusive: -34.3%
O=C(CSc1ccc(F)cc1)NC12CC3CC(CC(C3)C1)C2 | inconclusive: -46.7%
Nc1ccc(-c2cc3ccccc3c(=O)o2)cc1 | inconclusive: -33.1%
NC(=O)[C@H]1CC2(CC(c3cccc(NC(=O)COc4ccc(Cl)cc4)c3)=NO2)CN1C(=O)CC(c1ccccc1)c1ccccc1 (stereo not given in full) | inconclusive: -37.1%
COc1ccc(C(=O)N(C)Cc2ccccn2)cc1OC1CCN(C(C)C)CC1 | inactive: 11.8%
O=C1NC[C@H](CCCCN2CCN(CC3CCCCC3)C(=O)C2=O)N(Cc2ccccc2)C1=O | inactive: 0%
Cc1cccc(N2CCN(C(=O)C3CCN(c4ncnc5c4nc4n5CCCCC4)CC3)CC2C)c1 (stereo not given) | inconclusive: -45.3%
COc1ccc(-n2c(C)cc(C3=NNC(=NC4CC4)SC3)c2C)cc1 | inconclusive: -41.9%
CN(C)c1ccc(NC(=O)CN2CCC(NC(=O)C3CCCCC3)CC2)cc1 | inconclusive: -30.5%

SMILES | activity change
CC(C)(C)c1cc(-c2nc(N)nc(N)n2)cc(C(C)(C)C)c1 | inconclusive: -43.6%
COc1ccc(C2CC(c3ccccc3)=NN2C(=O)COC(=O)c2cccc(N)c2)cc1 (stereo not given) | inactive: -14.1%
Cc1cccc(OCC(=O)N(Cc2ccc(N(C)C)cc2)C2CCS(=O)(=O)C2)c1 (stereo not given) | active: -50.1%
Cc1ccc(C(=O)Cn2c(=N)n(N)c3ccccc32)cc1 | inconclusive: -45.3%
Cc1nc(/N=C(\N)NC(=O)NC2CCCCC2)nc2ccccc12 | active: -104%
O=C(CNCc1ccco1)Nc1cc(S(=O)(=O)N2CCOCC2)ccc1N1CCCC1 | inconclusive: -33.3%
COc1cccc(-n2c(SCC(=O)Nc3cc(C)on3)nc3ccccc3c2=O)c1 | inactive: -5.82%
CC(C)[C@H](NC(=O)Nc1cccc(C(F)(F)F)c1)C(=O)O | inactive: 33.5%
O=C(Nc1cccc(O)c1)c1ccc(S(=O)(=O)N2CCCCCC2)cc1 | inconclusive: -38.9%
COC1=C(Nc2ccc(OC)cc2)C(=O)c2ccccc2C1=O | inconclusive: -49.3%
Cc1ccc(C(=O)NCCc2nnc3c(C(F)(F)F)cc(Cl)cn23)o1 | inconclusive: -35%
CC1(C(=O)NCc2ccc3c(c2)OCO3)CCN1C(=O)CCc1ccc(Cl)cc1Cl (stereo not given) | inactive: -14.9%
O=C(/C=C/c1ccccc1)c1ccccc1O | active: -85.5%
O=C(Nc1ccccc1Cl)c1ccc([N+](=O)[O-])o1 | active: -97%
Cc1c(Cl)cccc1NC(=O)CSc1nc(=O)n(CCCN2CCOCC2)c2c1CCC2 | inconclusive: -32.8%
CC(C)CN(C(=O)c1cccc(S(=O)(=O)N2CCN(Cc3ccccc3)CC2)c1)C1CCS(=O)(=O)C1 (stereo not given) | inactive: 3.28%
CC(C)C[C@H]1CNC(=S)N1C[C@H]1CCCN1C[C@H](CC(C)C)N1C[C@H](Cc2ccccc2)N(CCc2ccccc2)C1=S | inconclusive: -31.9%
O=C(NCc1ccc(F)cc1)C(=O)c1cn(CC(=O)N2CCCC2)c2ccccc12 | inconclusive: -30.1%
CCNS(=O)(=O)c1c(C)cc(N2CCCC2=O)cc1C | inactive: 4.73%

Reference: PubChem BioAssay AID743279 (National Center for Advancing Translational Sciences (NCATS), 2014)
